# According to publication PMC9911399, “Two distinct binding modes provide the RNA-binding protein RbFox with extraordinary sequence specificity”:
# Residue numbers refer to the chain shown, from its start. Some of the results follow.
# T1: RBFOX1 RRM RbFoxmut (Fox-RRM*) (Homo sapiens, UniProt Q9NWB1 109-208, R118D;E147R;N151S;E152T)
# T1 sequence: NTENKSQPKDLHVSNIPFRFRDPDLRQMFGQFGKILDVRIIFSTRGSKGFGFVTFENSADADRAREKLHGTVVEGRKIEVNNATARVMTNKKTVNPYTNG
# B1: GUCGAGU (DNA:RNA)
# RNA: GGGAGACCGGAAUUCAGAUUGUCCGUCGAGUUUAAAUCCCGUCGUAGCCACCA
# DNA 1: CAATCTGAATTCCGGTCTCCC
# DNA 2: TGGTGGCTACGACGGGATT
# B2: GAAGCCC (DNA:RNA)
# RNA: B1 RNA with U26A, C27A, A29C, G30C, U31C
# DNA 1: CAATCTGAATTCCGGTCTCCC
# DNA 2: TGGTGGCTACGACGGGATT
# B3: AACAUUC (DNA:RNA)
# RNA: B1 RNA with G25A, U26A, G28A, A29U, G30U, U31C
# DNA 1: CAATCTGAATTCCGGTCTCCC
# DNA 2: TGGTGGCTACGACGGGATT
# B4: CCGUAUU (DNA:RNA)
# RNA: B1 RNA with G25C, U26C, C27G, G28U, G30U
# DNA 1: CAATCTGAATTCCGGTCTCCC
# DNA 2: TGGTGGCTACGACGGGATT
# B5: GAAACCA (DNA:RNA)
# RNA: B1 RNA with U26A, C27A, G28A, A29C, G30C, U31A
# DNA 1: CAATCTGAATTCCGGTCTCCC
# DNA 2: TGGTGGCTACGACGGGATT
# B6: GAGCAAU (DNA:RNA)
# RNA: B1 RNA with U26A, C27G, G28C, G30A
# DNA 1: CAATCTGAATTCCGGTCTCCC
# DNA 2: TGGTGGCTACGACGGGATT
# B7: AUGAGGC (DNA:RNA)
# RNA: B1 RNA with G25A, C27G, G28A, A29G, U31C
# DNA 1: CAATCTGAATTCCGGTCTCCC
# DNA 2: TGGTGGCTACGACGGGATT
# B8: GUAACAU (DNA:RNA)
# RNA: B1 RNA with C27A, G28A, A29C, G30A
# DNA 1: CAATCTGAATTCCGGTCTCCC
# DNA 2: TGGTGGCTACGACGGGATT
# B9: UCAUCGA (DNA:RNA)
# RNA: B1 RNA with G25U, U26C, C27A, G28U, A29C, U31A
# DNA 1: CAATCTGAATTCCGGTCTCCC
# DNA 2: TGGTGGCTACGACGGGATT
# B10: CUUUGGU (DNA:RNA)
# RNA: B1 RNA with G25C, C27U, G28U, A29G
# DNA 1: CAATCTGAATTCCGGTCTCCC
# DNA 2: TGGTGGCTACGACGGGATT
# B11: AGGCUGG (DNA:RNA)
# RNA: B1 RNA with G25A, U26G, C27G, G28C, A29U, U31G
# DNA 1: CAATCTGAATTCCGGTCTCCC
# DNA 2: TGGTGGCTACGACGGGATT
# B12: UCGUUUG (DNA:RNA)
# RNA: GGGAGACCGGAAUUCAGAUUGUCCUCGUUUGUUAAAUCCCGUCGUAGCCACCA
# DNA 1: CAATCTGAATTCCGGTCTCCC
# DNA 2: TGGTGGCTACGACGGGATT
# B13: AAUGACC (DNA:RNA)
# RNA: B1 RNA with G25A, U26A, C27U, G30C, U31C
# DNA 1: CAATCTGAATTCCGGTCTCCC
# DNA 2: TGGTGGCTACGACGGGATT
# B14: AUUGUCU (DNA:RNA)
# RNA: B1 RNA with G25A, C27U, A29U, G30C
# DNA 1: CAATCTGAATTCCGGTCTCCC
# DNA 2: TGGTGGCTACGACGGGATT
# B15: UUACGCG (DNA:RNA)
# RNA: B12 RNA with C26U, G27A, U28C, U29G, U30C
# DNA 1: CAATCTGAATTCCGGTCTCCC
# DNA 2: TGGTGGCTACGACGGGATT
# B16: AUUUCUC (DNA:RNA)
# RNA: B12 RNA with U25A, C26U, G27U, U29C, G31C
# DNA 1: CAATCTGAATTCCGGTCTCCC
# DNA 2: TGGTGGCTACGACGGGATT
# B17: GGUUACG (DNA:RNA)
# RNA: B1 RNA with U26G, C27U, G28U, G30C, U31G
# DNA 1: CAATCTGAATTCCGGTCTCCC
# DNA 2: TGGTGGCTACGACGGGATT
# B18: AGAACGU (DNA:RNA)
# RNA: B1 RNA with G25A, U26G, C27A, G28A, A29C
# DNA 1: CAATCTGAATTCCGGTCTCCC
# DNA 2: TGGTGGCTACGACGGGATT
# B19: CCCUUGG (DNA:RNA)
# RNA: B12 RNA with U25C, G27C, U30G
# DNA 1: CAATCTGAATTCCGGTCTCCC
# DNA 2: TGGTGGCTACGACGGGATT
# B20: AGUAAUG (DNA:RNA)
# RNA: B12 RNA with U25A, C26G, G27U, U28A, U29A
# DNA 1: CAATCTGAATTCCGGTCTCCC
# DNA 2: TGGTGGCTACGACGGGATT
# B21: AAUCCGG (DNA:RNA)
# RNA: B1 RNA with G25A, U26A, C27U, G28C, A29C, U31G
# DNA 1: CAATCTGAATTCCGGTCTCCC
# DNA 2: TGGTGGCTACGACGGGATT
# B22: UCCCCUC (DNA:RNA)
# RNA: B12 RNA with G27C, U28C, U29C, G31C
# DNA 1: CAATCTGAATTCCGGTCTCCC
# DNA 2: TGGTGGCTACGACGGGATT
# B23: GAUCUUG (DNA:RNA)
# RNA: B12 RNA with U25G, C26A, G27U, U28C
# DNA 1: CAATCTGAATTCCGGTCTCCC
# DNA 2: TGGTGGCTACGACGGGATT
# B24: CGGCAAG (DNA:RNA)
# RNA: B12 RNA with U25C, C26G, U28C, U29A, U30A
# DNA 1: CAATCTGAATTCCGGTCTCCC
# DNA 2: TGGTGGCTACGACGGGATT
# B25: GUUGAAC (DNA:RNA)
# RNA: B1 RNA with C27U, G30A, U31C
# DNA 1: CAATCTGAATTCCGGTCTCCC
# DNA 2: TGGTGGCTACGACGGGATT
# B26: CCGACCA (DNA:RNA)
# RNA: B12 RNA with U25C, U28A, U29C, U30C, G31A
# DNA 1: CAATCTGAATTCCGGTCTCCC
# DNA 2: TGGTGGCTACGACGGGATT
# B27: CAGGUAU (DNA:RNA)
# RNA: B1 RNA with G25C, U26A, C27G, A29U, G30A
# DNA 1: CAATCTGAATTCCGGTCTCCC
# DNA 2: TGGTGGCTACGACGGGATT
# B28: CGUACAC (DNA:RNA)
# RNA: GGGAGACCGGAAUUCAGAUUGUCCCGUACACUUAAAUCCCGUCGUAGCCACCA
# DNA 1: CAATCTGAATTCCGGTCTCCC
# DNA 2: TGGTGGCTACGACGGGATT
# B29: GCGAAUG (DNA:RNA)
# RNA: B12 RNA with U25G, U28A, U29A
# DNA 1: CAATCTGAATTCCGGTCTCCC
# DNA 2: TGGTGGCTACGACGGGATT
# B30: UAAUGAC (DNA:RNA)
# RNA: B28 RNA with C25U, G26A, U27A, A28U, C29G
# DNA 1: CAATCTGAATTCCGGTCTCCC
# DNA 2: TGGTGGCTACGACGGGATT
# B31: UCGCUAU (DNA:RNA)
# RNA: B12 RNA with U28C, U30A, G31U
# DNA 1: CAATCTGAATTCCGGTCTCCC
# DNA 2: TGGTGGCTACGACGGGATT
# Biological target: T1, RBFOX1 RRM RbFoxmut (Fox-RRM*)
# Assay: EMSA; HiTS-Eq, 1 nM pool, 10 min; buffer printed only for the single-RNA assays: 10 mM Tris pH 7.5, 150 mM NaCl, 3.4 mM EDTA, 0.001% NP-40, 30 C
# Conditions: tags: His6 N-terminal (pET28a); label: 5' 32P
# Outline: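 These values rest on relative association constants, computed from read-count changes of each RNA species versus the control reaction and normalised to the cognate motif. Reads came from free RNA recovered by 8% native PAGE after purified RbFox RRM (wild type or mutant) at increasing concentrations was equilibrated for 10 min in 50 µL with 1 nM of a 5′-radiolabelled pool with 7 randomized nucleotides and DNA-annealed flanks.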
row,Binder,binding signal
1,B1,0.137 KA relative to UGCAUGU
2,B2,0.0545 KA relative to UGCAUGU
3,B3,0.0602 KA relative to UGCAUGU
4,B4,0.0727 KA relative to UGCAUGU
5,B5,0.0514 KA relative to UGCAUGU
6,B6,0.0522 KA relative to UGCAUGU
7,B7,0.128 KA relative to UGCAUGU
8,B8,0.0942 KA relative to UGCAUGU
9,B9,0.0826 KA relative to UGCAUGU
10,B10,0.0992 KA relative to UGCAUGU
11,B11,0.124 KA relative to UGCAUGU
12,B12,0.396 KA relative to UGCAUGU
13,B13,0.0968 KA relative to UGCAUGU
14,B14,0.091 KA relative to UGCAUGU
15,B15,0.108 KA relative to UGCAUGU
16,B16,0.0923 KA relative to UGCAUGU

row,Binder,binding signal
1,B17,0.15 KA relative to UGCAUGU
2,B18,0.149 KA relative to UGCAUGU
3,B19,0.0771 KA relative to UGCAUGU
4,B20,0.142 KA relative to UGCAUGU
5,B21,0.062 KA relative to UGCAUGU
6,B22,0.0702 KA relative to UGCAUGU
7,B23,0.0882 KA relative to UGCAUGU
8,B24,0.0849 KA relative to UGCAUGU
9,B25,0.104 KA relative to UGCAUGU
10,B26,0.0776 KA relative to UGCAUGU
11,B27,0.152 KA relative to UGCAUGU
12,B28,0.0672 KA relative to UGCAUGU
13,B29,1.44 KA relative to UGCAUGU
14,B30,0.0801 KA relative to UGCAUGU
15,B31,0.104 KA relative to UGCAUGU
